Measured values taken from paper PMC3749138.
These are yes or no findings as the source states them, for the method shown. In cells and extracts the contact can be indirect. Tags and fused reporters may be left off the sequences shown.

The chains behind the UniProt entries cited, without tags or fusion partners.
UniProt O60573: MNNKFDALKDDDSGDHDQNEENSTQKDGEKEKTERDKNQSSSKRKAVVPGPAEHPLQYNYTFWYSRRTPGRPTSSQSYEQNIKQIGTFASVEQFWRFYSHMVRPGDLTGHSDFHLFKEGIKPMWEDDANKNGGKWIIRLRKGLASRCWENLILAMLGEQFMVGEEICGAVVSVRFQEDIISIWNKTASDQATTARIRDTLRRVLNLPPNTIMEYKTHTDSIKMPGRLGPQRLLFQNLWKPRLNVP
UniProt P06730: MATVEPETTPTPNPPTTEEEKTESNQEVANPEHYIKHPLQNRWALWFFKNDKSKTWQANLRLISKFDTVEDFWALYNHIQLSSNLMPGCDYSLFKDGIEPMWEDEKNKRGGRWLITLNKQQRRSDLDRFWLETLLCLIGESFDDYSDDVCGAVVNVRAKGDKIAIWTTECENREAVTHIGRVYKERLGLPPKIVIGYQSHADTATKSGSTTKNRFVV

Target: T1, GFP-4E-T Y30A (human) (UniProt Q9NRA8)
T1 sequence: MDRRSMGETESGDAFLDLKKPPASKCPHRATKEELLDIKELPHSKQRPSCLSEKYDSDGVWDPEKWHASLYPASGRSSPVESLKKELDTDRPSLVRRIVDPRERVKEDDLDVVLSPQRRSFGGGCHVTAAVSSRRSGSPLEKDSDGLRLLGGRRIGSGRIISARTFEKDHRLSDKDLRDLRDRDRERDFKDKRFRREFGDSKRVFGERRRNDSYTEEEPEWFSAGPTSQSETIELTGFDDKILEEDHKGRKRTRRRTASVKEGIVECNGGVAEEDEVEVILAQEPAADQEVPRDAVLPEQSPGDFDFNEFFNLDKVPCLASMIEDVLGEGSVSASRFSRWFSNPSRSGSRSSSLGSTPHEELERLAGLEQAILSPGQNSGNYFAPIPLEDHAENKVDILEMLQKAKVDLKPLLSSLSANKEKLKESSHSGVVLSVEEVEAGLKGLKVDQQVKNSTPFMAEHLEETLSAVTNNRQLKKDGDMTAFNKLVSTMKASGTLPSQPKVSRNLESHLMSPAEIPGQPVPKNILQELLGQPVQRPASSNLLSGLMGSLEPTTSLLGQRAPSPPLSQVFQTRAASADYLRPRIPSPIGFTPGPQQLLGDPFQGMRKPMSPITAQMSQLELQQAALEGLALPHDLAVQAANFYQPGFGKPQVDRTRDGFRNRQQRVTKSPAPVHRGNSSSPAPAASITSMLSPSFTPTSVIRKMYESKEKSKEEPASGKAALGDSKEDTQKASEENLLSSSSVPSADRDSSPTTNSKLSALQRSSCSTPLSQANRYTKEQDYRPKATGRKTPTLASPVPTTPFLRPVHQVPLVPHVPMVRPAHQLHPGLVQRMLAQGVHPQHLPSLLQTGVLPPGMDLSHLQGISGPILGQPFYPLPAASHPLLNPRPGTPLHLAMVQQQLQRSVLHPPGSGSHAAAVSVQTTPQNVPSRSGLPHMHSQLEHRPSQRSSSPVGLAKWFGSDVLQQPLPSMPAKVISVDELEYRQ
Assay: pull-down; GFP-Trap magnetic beads with 1 mg lysate of cells transfected with GFP-4E-T, NET buffer (50 mM Tris-HCl pH 7.5, 150 mM NaCl, 1 mM EDTA, 0.5% Nonidet P-40, 0.25% gelatin), 1.25 h at 4°C; western blotting with eIF4E1, eIF4E2 and 4E-T antibodies

| binding | Substance |
| --- | --- |
| no binding | eIF4E2 (endogenous) (from UniProt O60573 1-245) |
| no binding | eIF4E1 (endogenous) (from UniProt P06730 1-217) |
